Measurements: the RNAGym collection of RNA variant scans (doi:10.1101/gad.245936.114)
Variants at the floor of the assay are shown more often than the library holds them.

B1: tRNA (parent)
chain: CUCUCGGUAGCCAAGUUGGUUUAAGGCGCAAGACUUUAAUUUAUCACUACGAAAUCUUGAGAUCGGGCGUUCGACUCGCCCCCGGGAGAUUUUUUCCUCGAGCAA

Variants of: B1
Test: nonsense suppression (GFP-seq) (ratio to wild type); higher = more function; SUP4oc tRNA, yeast GFP reporter sort-seq
How it was run: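 Yeast were grown in raffinose/galactose medium with 80 mg/L adenine, each strain bearing a genome-integrated ochre-suppressor tRNA variant from a ~3% random-mutation library, a galactose-driven GFP ochre reporter, and RFP. After sorting into GFP/RFP bins, every bin was sequenced on an Illumina platform at phred ≥30. The GFPSEQ value, a measure of nonsense suppression, is the weighted bin median GFP/RFP relative to the unmutated parent tRNA, using each variant's estimated cell share per bin as the weight. Only variants with ≥100 reads and ≥30 cells were included.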

CUCUCGGUAGCCAAGUUGGUUUAAGGCGCAGGAUUUUAAUUUAUCACUACGAACGCUUGAGAUCGGGCGUUCGACUCGCCCCCGGGAGAUUUUUUCCUCGAGCAA [A31G C34U A54C U55G] and CUCUCGGUAGCCAAGUUGGUUUAAGGCGCACGACUUUAAUUUAUCACUACGAAAUCUUGAGAUCGGGCGUUCGACUCGCCCCGGGGAGAUUUUUUCCUCGAGCAA [A31C C83G] cannot be ordered by nonsense suppression: ≤ 0.026 for the first, ≤ 0.026 for the second.

CUCUCGGUAGCCAAGUUGGUUUAAGGCGCACGACUUUAAUUUAUCACUACGAAAUCUUGAGAUCGGGCGUGCGACUCGCCCCCGGGAGAUUUUUUCCUCGAGCAA [A31C U71G] and CUCUCGGUAGCCAAGUUGGUUUAAGGCGCAGGGCUUUAAUUUAUCACUACGAAAUCUUGAGAUCGGGCGUUCGACUCGCCCCCGGGAGAUUUUUUCCUCGAGCAA [A31G A33G] cannot be ordered by nonsense suppression: ≤ 0.026 for the first, ≤ 0.026 for the second.

CUCUCGGUAGCCAAGUUGGUUUAAGGCGCAGGACUUUAAUUUAUCACUACGAAAUCUUGAGAUCGGGCGUUCGACUCGCCCCCGGGAGUUUUUUUCCUCGAGCAA [A31G A89U] and CUCUCGGUAGCCAAGUUGGUUUAAGGCGCACGACUUUAAUUUAUCACUACGAAAUCUUGAGAUCGGGCGCUUGACUCGCCCCCGGGAGAUUUUUUCCUCGAGCAA [A31C U70C C72U] cannot be ordered by nonsense suppression: ≤ 0.026 for the first, ≤ 0.026 for the second.

First: CUCUCGGUAGCCAAGUUGGUUUAAGGCGCAGGACUUUAAUUUAUCACUACGAAAUCUUGCGAUCGGGCGUUCGACUCGCCCCCGGGAGAUUUUUUCCUCGAGCAA [A31G A60C]
Second: CUCUCGGUAGCCAAGUUGGUUUAAGGCGCACGACGUUAAUUUAUCACUACGAAAUCUUGAGAUCGGGCGUUCGACUCGACCCCGAGAGAUUUUUUCCUCGAGCAA [A31C U35G C79A G85A]
The nonsense suppression of the first is higher: 0.177 for the first, ≤ 0.026 for the second.

CUCUCGGUAGCCAAGUUGGUUUAAGGCGCAGGACUUUAAUUUAUCACUACGAAAUCUUGAGCUCGGGCGUUCGACUCGCCCCCGGGAGAUUUUUUCCUCGAGCAA [A31G A62C] and CUCUCGGUAGCCAAGUUGGUUUAAGGCGCACGACUUUAAUUUAUCACUACGAAAUCUUGAGAUCGGGCGUUCGACUCGCCCCCGGGAUAUUUUUUCCUCGAGCAA [A31C G88U] cannot be ordered by nonsense suppression: ≤ 0.026 for the first, ≤ 0.026 for the second.

Going from CUCUCGGUAGCCAAGUUGGUUUAAGGCGCAGGACUUUAAUUUAUCACUACGAACUCUUGAGAUCGGGCGUUCGACUCGCCCCCGGGAGAUUUUUUCCUCGAGCAA [A31G A54C] to CUCUCGGUAGCCAAGUUGGUUUAAGGCGCAGGACUUUAAUUUAUCACUACGAAUUCUUGAGAUCGGGCGUUCGACUCGCCCCCGGGAGAUUUUUUCCUCGAGCAA [A31G A54U], the nonsense suppression rises from 0.0977 to 0.627.

CUCUCGGUAGCCAAGUUGGUUUAAGGCGCACGACUUUAAUUUAUCACUACGAAAUCUUGAGGUCGGGCGUUCGACUCACCCCCGGGAGAUUUUUUCCUCGAGCAA [A31C A62G G78A] and CUCUCGGUAGCCAAGUUGGUUUAAGGCGCACGAGUUUAAUUUAUCACUACGAAAUCUUGAGAUCGAGCGUUCGACUCGCCCCCGGGAGAUUUUUUCCUCGAGCAA [A31C C34G G66A] cannot be ordered by nonsense suppression: ≤ 0.026 for the first, ≤ 0.026 for the second.

CUCUCGGUAGCCAAGUUGGUUUAAGGCGCACGACUUUAAUUUAUCACUACGAAAUCUUGAGGUCGGGCGUUCGACUCGCCCCCGGGAGAUUUUUUCCUCGAGCAA [A31C A62G] and CUCUCGGUAGCCAAGUUGGUUUAAGGCGCACGACUUUAAUUUAUCACUACGAAAUCUUGAGCUCGGGCGUUCGACUCGCCCCCGGGAGAUUUUUUCCUCGAGCAA [A31C A62C] cannot be ordered by nonsense suppression: ≤ 0.026 for the first, ≤ 0.026 for the second.

CUCUCGGUAGCCAAGUUGGUUUAAGGCGCACGACUUUAAUUUAUCACUACGAAAUCUUGAGAUCGGGCGUUCCACUCGCCCCCGGGAGAUUUUUUCCUCGAGCAA [A31C G73C] and CUCUCGGUAGCCAAGUUGGUUUAAGGCGCACGACAUUAAUUUAUCACUACGAAAACUUGAGAUCGGGCGUUCGACCCGCCCCCGGAAGAUUUUUUCCUCGAGCAA [A31C U35A U55A U76C G86A] cannot be ordered by nonsense suppression: ≤ 0.026 for the first, ≤ 0.026 for the second.

CUCUCGGUAGCCAAGUUGGUUUAAGGCGCACGACUUUAAUUUAUCACUACGAAAUCUUCAGAUCGGGCGUUCGACUCGCCCCCGAGAGAUUUUUUCCUCGAGCAA [A31C G59C G85A] and CUCUCGGUAGCCAAGUUGGUUUAAGGCGCACGACUUUAAUUUAUCACUACGAAAUCUUGAGAUCGGGCGUUCGAUUCGACCCCGGGAGAUUUUUUCCUCGAGCAA [A31C C75U C79A] cannot be ordered by nonsense suppression: ≤ 0.026 for the first, ≤ 0.026 for the second.

CUCUCGGUAGCCAAGUUGGUUUAAGGCGCAGGAGUUUAAUUUAUCACUACGAAAUCUUGAGAUCGGGCCUUCGACUCGCCCCCGGGAGAUUUUUUCCUCGAGCAA [A31G C34G G69C] and CUCUCGGUAGCCAAGUUGGUUUAAGGCGCACGACUUUAAUUUAUCACUACGAAAUCUUGAGGUCGGGCGUUCGACACGCCUCCGGGAGAUUUUUUCCUCGAGCAA [A31C A62G U76A C81U] cannot be ordered by nonsense suppression: ≤ 0.026 for the first, ≤ 0.026 for the second.

CUCUCGGUAGCCAAGUUGGUUUAAGGCGCACAACUUUAAUUUAUCACUACGAAAUAUUGAGAUCGGGCGUUCGAAUCGCCCCCGGGAGAUUUUUUCCUCGAGCAA [A31C G32A C56A C75A] and CUCUCGGUAGCCAAGUUGGUUUAAGGCGCACGACUUUAAUUUAUCACUACGAAAUCUUGAGAUCGGGCGUUCGACUCGCCCCGGUGAGAUUUUUUCCUCGAGCAA [A31C C83G G85U] cannot be ordered by nonsense suppression: ≤ 0.026 for the first, ≤ 0.026 for the second.

CUCUCGGUAGCCAAGUUGGUUUAAGGCGCACGACUUUAAUUUAUCACUACGAAAUCUUGAGAUCGGGCGUUCGACUCGCCCCCUGGAGAUUUUUUCCUCGAGCAA [A31C G84U] and CUCUCGGUAGCCAAGUUGGUUUAAGGCGCACGACUUUAAUUUAUCACUACGAAAUCCUGAGAUCGGGCGUUCGACUCGCCCCCGGGAGAUUUUUUCCUCGAGCAA [A31C U57C] cannot be ordered by nonsense suppression: ≤ 0.026 for the first, ≤ 0.026 for the second.

With CUCUCGGUAGCCAAGUUGGUUUAAGGCGCACGACUUUAAUUUAUCACUACGAAAUCAUGAGAUCGGGCGUUCGACUCGCCCCCGGGAGAUUUUUUCCUCGAGCAA [A31C U57A] the nonsense suppression was 0.219.
